Experimental data from publication PMC12040169 (PLOS Biology, 2025).
Some of the results follow.

test system: T1, C. trachomatis L2/434/Bu expressing GFP (CTL2-GFP); set-up: species or system HeLa; C. trachomatis total inclusion area by high-content imaging, normalised to DMSO; conditions: total inclusion area; 28.5 h, 10 µM; inhibitor
T1 construct: L2/434/Bu GFP intracellular growth in HeLa cells
In short: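 Imaging read-out: GFP inclusions and Hoechst nuclei captured by high-content imaging after fixation. Inclusion area/number = chlamydial growth; nuclei count = host cell viability. MIC calculated per earlier method.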

Structure (SMILES)	% of control remaining
CCCc1c(C)nc2ccccc2c1SCC(=O)O [CBK263558]	33.2951
Cc1cc(Oc2ccccc2)nc(Oc2ccc(OCC(N)=O)nn2)n1 [CBK266687]	101.288
O=C(c1cccnc1N1CCCCC1)N1CCCCC1 [CBK025882]	76.7283
O=C(Cc1cc(F)c(F)c(F)c1)Nc1ccc2ncccc2c1 [CBK159811]	93.1532
O=C1NN(c2cccc(Cl)c2)C(=O)/C1=C\c1ccc(-c2ccc3c(c2)C(=O)NC3=O)o1 [CBK262970]	63.7923
Cc1cc(C)c(NS(=O)(=O)c2ccc(NC(=S)Nc3ccc(S(N)(=O)=O)cc3)cc2)c(C)c1 [CBK267005]	91.1551
O=C(c1cscn1)N1CCCCC1c1nc2ccccc2[nH]1 (centres unmarked) [CBK283394]	104.694
CCSc1ccc(-c2cn3ccnc3c(N3CCN(CCN(C)C)CC3)n2)cc1 [CBK066662]	146.194
Cc1nc(NC(CC(C)C)C(=O)O)c2nc(C)oc2n1 (centres unmarked) [CBK022157]	110.27
Cn1ccnc1C1(O)CC2CCC(C1)N2C(=O)c1cccc(F)c1 (centres unmarked) [CBK284089]	111.582
Cc1cc(NC(=O)c2c(F)cccc2F)c2ccccc2n1 [CBK122737]	90.4285
O=C(OCCN1C[C@H]2CCCCC2C1c1ccccc1)c1ccc(Br)cc1 (some centres unmarked) [CBK016175C]	17.0876
Cc1ccc(C(=O)N2CCC(O)(c3cccnc3F)CC2)o1 [CBK284358]	72.9846
Cc1ccc([N+](=O)[O-])cc1NC(=O)CSC1=NCCS1 [CBK267489]	99.6599
CNC(=O)c1c(C)nc2ccccc2c1SCCC(=O)O [CBK154987T]	103.057
O=C(O)CC(Cc1ccc(Cl)cc1)C(=O)NCc1ccccc1 (centres unmarked) [CBK286984]	85.333
Cc1cc(S(=O)(=O)NCC(=O)OC(C)C)c(C)cc1Cl [CBK044196]	100.233
O=C(O)C(c1c[nH]c2cc(F)ccc12)N1CCN(c2ccccc2)CC1 (centres unmarked) [CBK286675]	86.0448
COc1ccc(S(=O)(=O)Nc2nc3c(s2)C(=O)CC(C)(C)C3)cc1 [CBK095611]	93.4904
CCNC(=O)c1cncc(-c2[nH]nnc2-c2ccccc2)c1 [CBK160354]	80.7141
CN1CCN(S(=O)(=O)c2ccc(NC(=O)c3cc(-c4cccnc4)nc4ccc(Cl)cc34)cc2)CC1 [CBK267734]	94.7656
CCOC(=O)CN1CCC(Oc2nccnc2OC2CCCCC2)CC1 [CBK082867T]	69.9059
COc1ccc(-c2cnc(N)c(N3CCN(C)CC3)n2)c(OC)c1OC [CBK063489]	74.8299
COCC(=O)N1CCN2C(=O)[C@@H]3C[C@@H](OCc4ccc(F)cc4)CN3C(=O)[C@@H]2C1 [CBK289605]	64.244
CCCNC(=O)Cn1ncc2c3sc(C)cc3n(CC)c2c1=O [CBK284171]	91.0283
CC(C)(C)CC(=O)N[C@H]1C[C@H]2C(=O)Nc3ccccc3C(=O)N2C1 [CBK289352]	84.5741
COc1ccc(C2(CNC(=O)c3ccc(C)cc3)CCOCC2)cc1 [CBK067060]	107.188

Structure (SMILES)	% of control remaining
CN(c1nc(-c2cccnc2)cn2ccnc12)C1CCCCC1 [CBK093609]	89.781
CCOC(=O)c1sc(NS(=O)(=O)c2ccc(C(=O)O)cc2)cc1C [CBK296623]	71.734
COc1cc(C#N)ccc1OCc1ccc2nc(C(F)(F)F)cc(Cl)c2c1 [CBK002589]	63.3441
O=C(c1ccc(Br)o1)n1cc(C(F)(F)F)ccc1=O [CBK022391]	69.7676
CC(=O)Nc1cc(NC(=O)CCCC(=O)O)ccc1Cl [CBK263949]	102.069
CNc1sc(C(=O)c2ccc(OC)c(OC)c2)c(N)c1C#N [CBK270194]	86.5303
CCOC(=O)N1CCC(NC(=O)c2cnn3c(C)c(Cc4ccccc4)c(C)nc23)CC1 [CBK160293]	94.5309
COc1c(Cl)cc(Cl)cc1CNCc1cccnc1 [CBK270142C]	120.888
CC(C)(C)OC(=O)NC1CCC(NCc2c[nH]c(-c3ccccc3)n2)CC1 (centres unmarked) [CBK056692]	107.034
O=C(CN1C(=O)N2CCCN=C2c2ccccc21)NC1CCCC1 [CBK284397]	73.8909
O=C(O)CN1C(=O)S/C(=C\c2ccc([N+](=O)[O-])o2)C1=O [CBK017858]	51.647
O=S(=O)(c1ccccc1)c1ccccc1C(F)(F)F [CBK085887]	89.5793
CC(C)(C)OC(=O)N1CCC(CNS(=O)(=O)c2cccs2)CC1 [CBK086019]	47.8801
O=C(c1nc(SCc2ccccc2)ncc1Cl)N1CCN(c2cccc(Cl)c2)CC1 [CBK268712]	84.2067
O=C(Cc1ccccc1Oc1ccccc1)Nc1cnc(-c2ccc(F)cc2)c(-c2ccco2)n1 [CBK037194]	86.118
O=C(Oc1ccc(Cl)cc1)c1cc(S(=O)(=O)N2CCOCC2)ccc1Cl [CBK261670]	93.1063
Oc1cc(Cc2ccccc2)cnc1CN1CCOCC1 [CBK288173]	93.898
CC(=O)N1CCN(c2nc3ccccc3s2)CC1 [CBK287362]	96.531
CCOC(=O)c1c[nH]c2nc(COc3ccccc3)nn2c1=O [CBK268088]	93.9743
O=C(O)/C=C\C(=O)Nc1ccccc1C(=O)N1CCOCC1 [CBK287067]	117.15
N#Cc1ccc(C(=O)N2C[C@@H]3C[C@H](C2)c2ccc(-c4cccs4)c(=O)n2C3)cc1 [CBK289180]	139.322
Cc1nc(C2CCCCN2C(=O)CCc2ccccc2)ncc1C(=O)Nc1ccc(F)cc1 (centres unmarked) [CBK285870]	94.4226
Cc1nc(Cc2nc(-c3ccc4c(c3)CCCN4S(C)(=O)=O)cs2)cs1 [CBK304542]	47.169
CC(C)(C)OC(=O)N1CCC(Oc2ccc(CN)cc2)CC1 [CBK004131]	33.8603
COCCNC(=O)c1ccc(-c2ccccc2)nc1NCC1CC1 [CBK106242]	103.199
N#CCC(=O)N1CCN(Cc2ccc3c(c2)OCO3)CC1 [CBK074447]	91.9743
Cc1ccc(S(=O)(=O)NC(C)C(=O)NCc2ccco2)cc1 (centres unmarked) [CBK266514]	81.4836

Structure (SMILES)	% of control remaining
c1cc(CNCCN2CCOCC2)cs1 [CBK001894]	108.368
O=C(c1cc(-c2ccc(Cl)cc2)[nH]n1)N1CCN(c2ncccn2)CC1 [CBK116551]	109.877
COC(=O)c1c(C)[nH]c(C(=O)N2CCCC2c2cccnc2)c1C (centres unmarked) [CBK296639]	68.5593
CCN(CC)CCN(C(=O)NCCc1c[nH]c2ccc(OC)cc12)C(C)c1ccc(OC)c(OC)c1 (centres unmarked) [CBK158948]	90.2475
O=C(CSc1nc2[nH]ncc2c(=O)n1-c1ccccc1)Nc1ccc(F)c(Cl)c1 [CBK266453]	60.7151
O=C(Nc1cccc(F)c1)c1cc2ccccc2cc1O [CBK016863]	86.3869
Cc1nc(C)c(C(=O)N2CCC(c3cc4c(C)cccc4cn3)CC2)o1 [CBK285186]	63.6215
COc1ccc(COc2nc3ccccc3nc2NC(C)C)cc1OC [CBK116610]	105.352
Cc1ccc(Nc2ncc(C(=O)NCc3ccccn3)c3ccccc23)cc1Cl [CBK291113]	122.488
Cc1ccc(Oc2c([N+](=O)[O-])c(C)nn2C)c(Br)c1 [CBK000283]	90.5921
OCCOc1nc2ccccc2s1 [CBK001812]	93.0958
O=C(C1CCCN(c2nc3c(-c4ccccc4)csc3c(=O)[nH]2)C1)N1CCOCC1 (centres unmarked) [CBK215582]	110.558
CCc1nccn1CCC(=O)Nc1ccc2c(c1)nc(CC)n2CC [CBK281629]	117.924
CC(C)NS(=O)(=O)c1ccc(NS(=O)(=O)c2cccc(C(=O)O)c2)cc1 [CBK296950]	80.0003
COc1ccccc1-c1ccc(NC(=O)CCc2ccc3c(c2)n(C)c(=O)n3C)cc1 [CBK286527]	96.4329
CC(C(=O)N1c2ccccc2Sc2ccccc21)N1C(=O)c2ccccc2C1=O (centres unmarked) [CBK018045]	75.9462
O=[N+]([O-])c1ccc(NCCNS(=O)(=O)c2ccccc2)cc1 [CBK261948]	98.7052
O=[N+]([O-])c1ccc(Sc2nnc(-c3cccs3)n2CC2CCCO2)cn1 (centres unmarked) [CBK297483]	55.4173
O=C(Nc1cccnc1)N1CCc2ccccc2C1 [CBK155312]	103.684
Cc1ccccc1-n1nc(-c2ccc(NC(=O)c3ccccc3)cc2)cc1NC(=O)c1ccccc1 [CBK261264]	94.5466
Cc1nc(C)c(-c2csc(Nc3ncccn3)n2)s1 [CBK263297B]	83.2432
CC(=O)Nc1nc(CN2CCOC(c3ccc(F)cc3)C2)cs1 (centres unmarked) [CBK305591]	67.4109
O=C(COc1cccc([N+](=O)[O-])c1)Nc1cc(C(=O)O)cc(C(=O)O)c1 [CBK263604]	100.607
Oc1ccc(CN2CCN(c3ccc(F)cc3)CC2)c2cccnc12 [CBK267985]	105.158
Cc1nnc(SCCn2c(N3CCCCC3)nc3c2c(=O)n(C)c(=O)n3C)s1 [CBK269288]	118.414
CCOC(=O)c1cccc(-c2ccc(OC(F)(F)F)cc2)n1 [CBK149251]	107.28
